Assay results: publication PMC6446940 (ChemMedChem, 2018)

Tested on: TZM-bl cells
Assay: Cytotoxicity
Type: cell-based
Settings: compared with NBD-14113

**Q.** For Cc1nc(C(CN)NC(=O)c2ccc(-c3ccc4c(c3)OCO4)[nH]2)sc1CO (stereo not shown) [NBD-14110, N-(2-amino-1-(5-(hydroxymethyl)-4-methylthiazol-2-yl)ethyl)-5-(benzo[d][1,3]dioxol-5-yl)-1H-pyrrole-2-carboxamide], which “improvement in cytotoxicity (CC50) compared with the control” value is on record?
**A.** Its value is ~ 1.7 fold.
